In experiment [1] the target is T1, wild-type factor Xa (fXa) (human, UniProt P00742 235-488, 11 gamma-carboxyglutamic acid residues (Gla) in the Gla domain, residues 1-45 of SEQ ID NO. 1). The experiment is described as follows: fXa chromogenic activity assay (Spectrozyme-fXa) after 1 h incubation; fXa 1 nM, fVIIa 1 nM, TF/PCPS (2 nM TF). How it is done:
(§1) In this study, the interaction of the fXa derivative (SEQ ID NO: 3) with TFPI was characterized by incubating TFPI in the presence or absence of fVIIa/TF. The assay mixture contained fXa (1 nM), fXa derivative (0, 1, or 5 nM), TF/PCPS (2 nM TF), fVIIa (0 or 1 nM) and increasing concentrations of TFPI (0-12 nM). Innovin was used as the source of TF and phospholipids. After a 1 hour incubation period at room temperature, fXa activity was determined by measuring cleavage of the peptidyl substrate, Spectrozyme-fXa (100 μM), and expressed as % control activity in the absence of TFPI. […] The fXa derivative dose dependently reversed the inhibitory effect of TFPI.

The target of experiment [2] is T1, wild-type factor Xa (fXa). The experiment is described as follows: fXa chromogenic activity assay (Spectrozyme-fXa, 100 uM) after 2 h incubation; fXa 1.0 nM in the presence of the competitor SEQ ID NO: 3 at 5.0 nM. How it is done: (§2) The binding kinetics were determined using three different concentrations of the fXa derivative (0, 1 nM, and 5 nM) and escalating doses of TFPI, up to about 12 nM. fXa chromogenic activity was measured following a 2 hour incubation of fXa (1 nM). Residual fXa activity was measured by cleavage of the peptidyl substrate Spectrozyme-fXa (100 μM).

Experiment [3] deals with T1, wild-type factor Xa (fXa). The experiment is described as follows: fXa chromogenic activity assay (Spectrozyme-fXa, 100 uM) after 2 h incubation; fXa 0.5 nM. As for the experimental part:
(§3) The binding kinetics was determined using two different concentrations of the fXa derivative (0.5 nM and 1.0 nM) and escalating doses of TFPI, up to about 12 nM. fXa chromogenic activity was measured following a 2 hour incubation of the reaction mixture. Residual fXa activity was measured by cleavage of the peptidyl substrate Spectrozyme-fXa (100 μM). […] Such inhibition was also significant when TFPI's concentration was at 1 nM.

Experiment [4] concerns the target T1, wild-type factor Xa (fXa). The experiment is described as follows: fXa chromogenic activity assay (Spectrozyme-fXa, 100 uM) after 2 h incubation; fXa 1.0 nM. As for the experimental part:
as §3

For experiment [5], the target named is T1, wild-type factor Xa (fXa). Kind of experiment: fXa chromogenic activity assay (Spectrozyme-fXa, 100 uM) after 2 h incubation; fXa 1.0 nM in the presence of the competitor SEQ ID NO: 3 at 1.0 nM. As for the experimental part:
as §2

The target of experiment [6] is T1, wild-type factor Xa (fXa). The experiment is described as follows: fXa chromogenic activity assay (Spectrozyme-fXa) after 1 h incubation; fXa 1 nM, fVIIa 1 nM, TF/PCPS (2 nM TF), in the presence of the competitor SEQ ID NO: 3 at 5 nM. As for the experimental part:
as §1

In experiment [7] the target is T2, fXa derivative (SEQ ID NO: 3) (human, UniProt P00742 80-179; P00742 235-488).
T2 construct: Prep 1 and Prep 2 are two preparations of the same molecule; also called fXa derivative Prep 1; fXa derivative Prep 2
The experiment is described as follows: fXa chromogenic assay, kinetic fit of the reversal of TFPI inhibition; FXa + TFPI + fXa derivative (FIG. 1D). How it is done:
as §2

Experiment [8] deals with T2, fXa derivative (SEQ ID NO: 3). Kind of experiment: SPR, Biacore 3000, fXa derivative immobilized on CM-5 chip. As for the experimental part:
A few major plasma proteins, including tissue factor pathway inhibitor (TFPI), antithrombin III (ATIII), α-2-macroglobulin, α-1-antitrypsin, factor VII (fVII), factor X (fX), prothrombin, and factor V (fV), were tested for their binding affinity to a wild-type factor Xa (fXa) and two individual preparations (Prep 1 and Prep 2) of the fXa derivative (SEQ ID NO: 3). The binding experiment was conducted with a Biacore® 3000 with the fXa derivative immobilized on a CM-5 sensor chip according to manufacturer's instruction.

Experiment [9] has the same target. The experiment is described as follows: fXa chromogenic assay, kinetic fit of the reversal of TFPI inhibition; FXa + TFPI + fXa derivative (FIG. 1C).
Experiment [10] concerns the target T1, wild-type factor Xa (fXa). The experiment is described as follows: fXa chromogenic assay, kinetic fit; FXa + TFPI + fXa derivative (FIG. 1D). How it is done: as §2
Experiment [11] deals with T1, wild-type factor Xa (fXa). The experiment is described as follows: fXa chromogenic assay, kinetic fit; FXa + TFPI + fXa derivative (FIG. 1C).
Experiment [12] concerns the target T1, wild-type factor Xa (fXa). The experiment is described as follows: fXa chromogenic activity assay (Spectrozyme-fXa, 100 uM) after 2 h incubation; fXa 1.0 nM, no SEQ ID NO: 3. As for the experimental part:
as §2

Experiment [13] has as its target T1, wild-type factor Xa (fXa). Kind of experiment: fXa chromogenic assay, kinetic fit; FXa + TFPI (FIG. 1A).
Experiment [14] addresses T1, wild-type factor Xa (fXa). The experiment is described as follows: fXa chromogenic activity assay (Spectrozyme-fXa) after 1 h incubation; fXa 1 nM, TF/PCPS (2 nM TF), no fVIIa. How it is done: as §1
The target of experiment [15] is T1, wild-type factor Xa (fXa). Kind of experiment: fXa chromogenic activity assay (Spectrozyme-fXa) after 1 h incubation; fXa 1 nM, fVIIa 1 nM, TF/PCPS (2 nM TF), in the presence of the competitor SEQ ID NO: 3 at 1 nM. How it is done: as §1

Values joined by “and” are separate entries in the source; they are usually repeats but may differ in a detail not shown here. Identical values can stand only once.

B1: tissue factor pathway inhibitor (TFPI) (other)
chain: not shown
One may read the Kd as the constant that tells how readily two partners part at equilibrium. As usually defined, the Ki is a measure of affinity in units of concentration, obtained from inhibition or displacement. Consider B1, for which the “IC50 (read off the curve)” value in experiment [1] was around 1000 pM; in [2] it was around 2000 pM; in experiment [3] it was around 300 pM; in experiment [4] it was around 500 pM; in experiment [5], around 1000 pM; in experiment [6], around 3000 pM. The results for the “IC50 (read off the curve)” value in [12], in experiment [14] and in [15] were around 500 pM, around 1000 pM and around 2000 pM, respectively. In addition, the Kd in experiment [7] is 155 pM; in [8] it was 640 pM and 700 pM; in [9], 70 pM. Moreover, the values for the Ki in [10], in experiment [11] and in [13] were 33 pM, 26 pM and 21 pM, respectively.

The values are drawn from patent US20180333469A1 (PORTOLA PHARMACEUTICALS, published 2018).
